Some of the results follow. Antibody binding of pooled human sera (four to six donors per pool; dilution not stated) to peptides of the Trypanosoma cruzi antigen TSSA on microarrays. Quantile-normalised fluorescence in arbitrary units, mean of duplicate arrays; higher = more binding. No active / inactive call. The uninfected pools are read here as the healthy donors of the same country. The strongest signals lie near the top of the scale (about 60,000).

This assay concerns pooled sera of uninfected people, Colombia. Description: antibody binding signal (normalised fluorescence) (arbitrary fluorescence units); higher = stronger serum antibody binding to peptide. As to the method: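 Microarray of 15-residue peptides over residues 30-55 of Trypanosoma cruzi TSSAII, each with 1 to 10 substitutions at naturally variable positions, probed with one serum pool per country.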
The sequence PSGTEKKAATGGTPS displayed an antibody binding signal of 834.

For DKKAAAGEAPSPPGA, the antibody binding signal was determined as 119.

Consider GKEKKAAAGEAPSQP, for which the antibody binding signal is 93.5.

The sequence SGTDKKTAAGGAPSP gave an antibody binding signal of 258.

Turning to KAATGETPSQSGASS, the antibody binding signal worked out at 197.

As for PSGTEKKAAAGGTPS, the antibody binding signal is 322.

In the case of KDKKTAAGGTPSQPG, the antibody binding signal was determined as 189.

As for SGKENKAAAGETPSP, the antibody binding signal came to 496.

As to ISTPPSGTDNKPATG, the antibody binding signal is 272.

PPSGKDKKAAAGETP registered an antibody binding signal of 302.

The sequence SGKDKKPATGGAPSQ showed an antibody binding signal of 345.

Consider KEKKAATGGTPSPSG, for which the antibody binding signal is 278.

The sequence SSTPPSGTEKKPAAG displayed an antibody binding signal of 224.

Turning to PPSGKENKTATGGAP, the antibody binding signal worked out at 644.

PPSGTDKKPAAGETP registered an antibody binding signal of 827.

The sequence PSGKDKKAAAGGAPS returned an antibody binding signal of 99.5.

TDNKPAAGGAPSQPG showed an antibody binding signal of 225.

In turn, PSGKEKKAATGGTPS showed an antibody binding signal of 353.

Take KDNKTAAGGTPSQPG: the antibody binding signal was 212.

PSGTDKKAATGGTPS had an antibody binding signal of 631.

Regarding NKAATGGTPSPSGAS, the antibody binding signal was found to be 787.

In the case of KDKKAAAGGTPSPSG, the antibody binding signal came to 125.

Sequence TENKAATGGTPSQSG yielded an antibody binding signal of 182.

Turning to ISTPPSGTDNKPAAG, the antibody binding signal was 408.

Consider GKDNKTAAGGAPSPP, for which the antibody binding signal was found to be 160.

Turning to DNKAATGGAPSQPGA, the antibody binding signal was found to be 289.

NKAAAGGAPSQSGAS yielded an antibody binding signal of 315.

PPSGKEKKAATGGAP returned an antibody binding signal of 338.

For the sequence EKKPAAGGTPSQPGA, the antibody binding signal is 236.

On to TDNKAATGGTPSPPG, for which the antibody binding signal came out at 539.

With GKEKKTATGEAPSQS, the antibody binding signal was determined as 81.1.

Sequence KAAAGGAPSPSGASS gave an antibody binding signal of 106.

Regarding GKEKKAATGGTPSQP, the antibody binding signal was 251.

For TENKTAAGGAPSPSG, the antibody binding signal came to 209.

Take PSGKEKKTAAGETPS: the antibody binding signal is 512.

With KEKKTAAGGTPSQPG, the antibody binding signal was determined as 178.

As for TDKKPAAGETPSQPG, the antibody binding signal stood at 664.

For the sequence GTEKKAAAGGTPSQP, the antibody binding signal is 141.

Sequence NKAAAGETPSQPGAS registered an antibody binding signal of 872.

As to GKDKKPATGEAPSQS, the antibody binding signal came to 192.

(Values after the supplement of paper PMC10441789.)
